Laboratory results published in the supplement of paper PMC10723795.
Some of the results follow.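 How the source made its calls: active = more than 2 SD below the DMSO mean: under 0.85 at 10 µM or 0.885 at 1 µM; inactive = the rest.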 Repeats are few or missing, and single values can be far off.

Test system: RPE1
Assay: nucleolar normality score relative to DMSO (fraction of DMSO control); RPE1 is a non-cancer human cell line; higher = more normal nucleoli (less nucleolar stress)
Settings: 24 h
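Further: fixed cells immunolabelled for nucleolin and UBF, 40 image fields per well in 384-well plates, per-cell score = nucleolin nucleolar/nucleoplasm intensity ratio divided by the matching UBF ratio.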

Cc1c(-c2cnccn2)ssc1=S [Oltipraz]
nucleolar normality score (1 µM): inactive: 1.02
nucleolar normality score (10 µM): inactive: 1.02

CCn1c2ccccc2c2cc(CNCc3ccccc3OC)ccc21
nucleolar normality score (1 µM): inactive: 0.968
nucleolar normality score (10 µM): inactive: 0.998

C=CC(=O)N1CCCC(n2c(=O)n(-c3ccc(Oc4ccccc4)cc3)c3c(N)ncnc32)C1 (centres undefined) [ONO-4059 analogue]
nucleolar normality score (1 µM): inactive: 0.979
nucleolar normality score (10 µM): inactive: 0.988

Cc1ccc(NC(=O)c2cccc(C(C)(C)C#N)c2)cc1Nc1ccc2ncn(C)c(=O)c2c1
nucleolar normality score (1 µM): inactive: 1.03
nucleolar normality score (10 µM): inactive: 0.907

Clc1ccc(C(c2c[nH]c3ccccc23)c2c[nH]c3ccccc23)cc1
nucleolar normality score (1 µM): inactive: 0.95
nucleolar normality score (10 µM): inactive: 0.959

CC(C)OC(=O)C1=CN(C(=O)c2ccc(F)c(F)c2)CC(C)(C)c2c1[nH]c1ccccc21 [Turofexorate Isopropyl (XL335)]
nucleolar normality score (1 µM): inactive: 0.988
nucleolar normality score (10 µM): inactive: 0.853

CN(CCNc1ccnc2cc(Cl)ccc12)CCNc1ccnc2cc(Cl)ccc12
nucleolar normality score (1 µM): inactive: 1.01
nucleolar normality score (10 µM): inactive: 0.898

Cc1ccc(F)c(NC(=O)Nc2ccc(-c3cccc4[nH]nc(N)c34)cc2)c1 [Linifanib (ABT-869)]
nucleolar normality score (1 µM): inactive: 0.923
nucleolar normality score (10 µM): inactive: 1.07

Cc1[nH]nc(C(F)(F)F)c1Cc1sc2c(c1C(=O)N1C[C@](C)(O)CO1)c(=O)n(C)c(=O)n2C(C)C
nucleolar normality score (1 µM): inactive: 0.956
nucleolar normality score (10 µM): inactive: 1.05

COc1cc2ncnc(Nc3cccc(Cl)c3)c2cc1OC [AG-1478 (Tyrphostin AG-1478)]
nucleolar normality score (1 µM): inactive: 1.05
nucleolar normality score (10 µM): inactive: 1.06

CS(=O)(=O)c1ccc(-c2nnc(/C=C/c3nnc(-c4ccc(C#N)cc4)o3)n2-c2ccccc2Cl)nc1
nucleolar normality score (1 µM): inactive: 0.933
nucleolar normality score (10 µM): inactive: 0.942

Cc1c(CN2CCC(Nc3ncnc4sc(CC(F)(F)F)cc34)CC2)ccc2[nH]c(C#N)cc12
nucleolar normality score (1 µM): inactive: 1.07
nucleolar normality score (10 µM): inactive: 1.01

NC(=O)c1ccc(I)c([N+](=O)[O-])c1 [Iniparib (BSI-201)]
nucleolar normality score (1 µM): inactive: 1.1
nucleolar normality score (10 µM): inactive: 1.09

CN/C(=N\CCSCc1nc[nH]c1C)NC#N [Cimetidine]
nucleolar normality score (1 µM): inactive: 1.03
nucleolar normality score (10 µM): inactive: 1.09

COc1ccc(C2=N[C@@H](c3ccc(Cl)cc3)[C@@H](c3ccc(Cl)cc3)N2C(=O)N2CCNC(=O)C2)c(OC(C)C)c1 [Nutlin-3]
nucleolar normality score (1 µM): inactive: 0.961
nucleolar normality score (10 µM): inactive: 1.04

NS(=O)(=O)c1ccc(NC(=S)N2CCN(CC=Cc3ccccc3)CC2)cc1
nucleolar normality score (1 µM): inactive: 0.912
nucleolar normality score (10 µM): inactive: 1.02

CCCNC(=O)Nc1ccc(Oc2ncnc3cc(OC)c(OC)cc23)cc1Cl
nucleolar normality score (1 µM): inactive: 1
nucleolar normality score (10 µM): inactive: 1.06
